In test [1] the target is T1, SNX5-Myc (His)6 (in C2C12) (UniProt Q9D8U8).
T1 sequence: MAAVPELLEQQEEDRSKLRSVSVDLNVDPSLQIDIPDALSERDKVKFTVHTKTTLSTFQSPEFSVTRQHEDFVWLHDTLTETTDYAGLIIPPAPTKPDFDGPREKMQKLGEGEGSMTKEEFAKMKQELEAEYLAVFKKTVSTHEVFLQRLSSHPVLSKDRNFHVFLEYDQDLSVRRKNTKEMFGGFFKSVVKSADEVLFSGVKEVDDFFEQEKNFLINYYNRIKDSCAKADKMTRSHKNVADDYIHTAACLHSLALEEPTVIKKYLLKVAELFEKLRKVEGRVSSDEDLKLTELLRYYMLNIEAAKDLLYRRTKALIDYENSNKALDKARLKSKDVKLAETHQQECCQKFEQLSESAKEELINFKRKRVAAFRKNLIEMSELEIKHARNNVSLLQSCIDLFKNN
The test can be described thus: co-IP; C2C12 cells transduced with SNX5-Myc (His)6 or eGFP control vector; Nickel-NTA IP; western blot for Myc and RI-α.

Protein sequences, listed by entry. Tags and fused reporters are not part of them.
UniProt Q9DBC7: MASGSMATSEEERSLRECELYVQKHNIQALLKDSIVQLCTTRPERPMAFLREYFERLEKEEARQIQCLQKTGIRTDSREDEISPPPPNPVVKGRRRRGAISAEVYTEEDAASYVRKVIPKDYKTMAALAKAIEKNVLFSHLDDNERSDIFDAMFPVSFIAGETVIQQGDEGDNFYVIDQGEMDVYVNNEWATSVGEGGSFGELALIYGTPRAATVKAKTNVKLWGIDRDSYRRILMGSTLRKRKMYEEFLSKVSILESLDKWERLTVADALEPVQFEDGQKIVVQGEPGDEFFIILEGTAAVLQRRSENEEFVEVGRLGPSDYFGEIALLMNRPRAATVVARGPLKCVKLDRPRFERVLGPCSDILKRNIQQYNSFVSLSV
UniProt G3X8Y1: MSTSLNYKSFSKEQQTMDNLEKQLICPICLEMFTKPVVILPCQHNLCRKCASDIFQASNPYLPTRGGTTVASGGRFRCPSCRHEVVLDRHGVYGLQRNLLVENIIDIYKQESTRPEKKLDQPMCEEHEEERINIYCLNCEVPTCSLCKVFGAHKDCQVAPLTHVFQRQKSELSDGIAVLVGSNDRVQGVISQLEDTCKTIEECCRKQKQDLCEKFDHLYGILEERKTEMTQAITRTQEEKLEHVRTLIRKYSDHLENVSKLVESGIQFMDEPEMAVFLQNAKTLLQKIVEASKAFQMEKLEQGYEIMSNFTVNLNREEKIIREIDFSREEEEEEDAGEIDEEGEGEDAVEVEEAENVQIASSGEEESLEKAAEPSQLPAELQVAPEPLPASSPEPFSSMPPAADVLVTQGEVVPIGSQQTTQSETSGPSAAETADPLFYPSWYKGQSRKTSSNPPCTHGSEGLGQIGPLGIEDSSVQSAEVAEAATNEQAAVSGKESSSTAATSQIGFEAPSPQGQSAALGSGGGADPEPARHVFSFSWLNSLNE

Another test addresses T2, SNX5-FLAG (in COS-7) (UniProt Q9D8U8).
T2 sequence: T1 sequence
The test is described as follows: co-IP; lysates of transfected COS-7 cells; immunoprecipitated with anti-FLAG M2 agarose; western blot for Myc and FLAG.

In test [2] the target is T3, SNX5-BAR-FLAG (in HEK293) (UniProt Q9D8U8).
T3 sequence: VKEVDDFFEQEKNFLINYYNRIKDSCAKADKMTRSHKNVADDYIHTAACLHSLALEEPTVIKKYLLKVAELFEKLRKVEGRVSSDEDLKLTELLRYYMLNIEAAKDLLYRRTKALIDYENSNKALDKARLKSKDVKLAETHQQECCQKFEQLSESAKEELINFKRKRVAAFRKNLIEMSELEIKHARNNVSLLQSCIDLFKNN
The test is described as follows: co-IP; lysates of co-transfected HEK293 cells; immunoprecipitated with anti-FLAG M2 agarose; western blot for Myc and FLAG. On the technique in general: A western blot detects proteins with antibodies after separation by electrophoresis.

The next test deals with T4, SNX5-FLAG (in HEK293) (UniProt Q9D8U8).
T4 sequence: T1 sequence
Described as above.

The target in the next test is T5, SNX5-PX-FLAG (in HEK293) (UniProt Q9D8U8).
T5 sequence: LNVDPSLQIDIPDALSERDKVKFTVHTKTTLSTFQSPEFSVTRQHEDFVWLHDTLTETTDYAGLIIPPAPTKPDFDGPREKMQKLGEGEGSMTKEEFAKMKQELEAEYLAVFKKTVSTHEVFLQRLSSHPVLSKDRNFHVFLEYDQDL
The test is described as above.

These are yes or no findings as the source states them, for the method shown. In cells and extracts the contact can be indirect. Some binding calls cover weakened binding; strength is not graded here. Where a sequence is shown, tags or fusion partners need not be part of it.

“RI-α (cAMP-dependent protein kinase type I alpha regulatory subunit) (from UniProt Q9DBC7 1-381)”: the binding entry in test [1] is listed as “binds”.
Turning to “MuRF2-Myc (His)6 (in COS-7) (from UniProt G3X8Y1 1-545)”, the binding result with SNX5-FLAG (in COS-7) is “binds”.

B1: MuRF3-Myc (His)6 (in HEK293) (protein, UniProt Q9ERP3 1-366)
chain: MNFTVGFKPLLGDAHNMDNLEKQLICPICLEMFSKPVVILPCQHNLCRKCANDVFQASNPLWQSRGSTTVSSGGRFRCPSCRHEVVLDRHGVYGLQRNLLVENIIDIYKQESSRPLHAKAEQHLMCEEHEDEKINIYCLSCEVPTCSLCKVFGAHKDCEVAPLPTIYKRQKSELSDGIAMLVAGNDRVQAVITQMEEVCQTIEDNSRRQKQLLNQRFETLCAVLEERKGELLQALAREQEEKLQRVRGLIRQYGDHLEGSSKLVESAIQSMEEPQMALYLQQAKELINKVGAMSKVELAGRPEPGYESMEQFSVSVEHVAEMLRTIDFQPGAAGDEEDDDMALDGEEGNAGLEEERLDVPEGSGLH
For the molecule B1, the binding entry in test [2] is “binds”; in the test with SNX5-FLAG (in HEK293), “binds”; in the test with SNX5-PX-FLAG (in HEK293) it was “no binding”.
